Source: the RNAGym collection of RNA variant scans (doi:10.1073/pnas.2313332121)
Variants at the background level are over-represented here.

B1: TPR 5TU (parent)
chain: GGAUCUUCUCGAUCUAACAAAAAAGACAAAUCUGCCACAAAGCUUGAGAGCAUCUUCGGAUGCAGAGGCGGCAGCCUUCGGUGGCGCGAUAGCGCCAACGUUCUCAACUAUGACACGCAAAACGCGUGCUCCGUUGAAUGGAGUUUAUCAUG

Variants of: B1
Assay: polymerase ribozyme fitness, log enrichment relative to wild type (log ratio); higher = more active; in vitro selection for triplet polymerase activity
Summary of the method: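 The heterodimeric triplet polymerase ribozyme's subunits were each mutagenized into PCR-built libraries and transcribed. Every library was selected once, in triplicate, by annealing with a biotinylated primer, the partner subunit and triplets, incubating frozen at −7 °C, gel-excising extended constructs, capturing on streptavidin beads and running RT-PCR. Input and output libraries were Illumina-sequenced, with genotypes kept only at ≥10 input reads and ≥1 read per output. Fitness, from inverse-variance-weighted replicate averages, is the base-2 logarithm of genotype enrichment over wild-type enrichment.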

C51G A52U U55G G83A and C51G A64G A66G cannot be ordered by “polymerase ribozyme fitness (log ratio)” value: ≤ -4.2 for the first, ≤ -4.2 for the second.

C51G A66G G83C C96A and C51G A91G U101G A147C cannot be ordered by “polymerase ribozyme fitness (log ratio)” value: ≤ -4.2 for the first, ≤ -4.2 for the second.

First: C51G A91U U104G
Second: C51G A115C A122U
The “polymerase ribozyme fitness (log ratio)” value of the first is lower: ≤ -4.2 for the first, -3.82 for the second.

C51G C69G C85U and C51G C72A G83C G136A G141A cannot be ordered by “polymerase ribozyme fitness (log ratio)” value: ≤ -4.2 for the first, ≤ -4.2 for the second.

C51G C79U C87U A115G and C51G C85U C95A A98C C99G C105A A115G cannot be ordered by “polymerase ribozyme fitness (log ratio)” value: ≤ -4.2 for the first, ≤ -4.2 for the second.

C51G C87G A137G U145G and C51G C87U C114G cannot be ordered by “polymerase ribozyme fitness (log ratio)” value: ≤ -4.2 for the first, ≤ -4.2 for the second.

C51G C93A A110U U134C U146G and C51G G58U C93G C123U cannot be ordered by “polymerase ribozyme fitness (log ratio)” value: ≤ -4.2 for the first, ≤ -4.2 for the second.

C51G G59A G86A C105A A137U G141C A142C and C51G G62U G92A C96A cannot be ordered by “polymerase ribozyme fitness (log ratio)” value: ≤ -4.2 for the first, ≤ -4.2 for the second.

C51G G65C G94C and C51G G67C C93U A121G cannot be ordered by “polymerase ribozyme fitness (log ratio)” value: ≤ -4.2 for the first, ≤ -4.2 for the second.

C51G G68A C79G G86C and C51G G70A G92U C99G G126A cannot be ordered by “polymerase ribozyme fitness (log ratio)” value: ≤ -4.2 for the first, ≤ -4.2 for the second.

C51G G71A C72U U78G U82C G86A C99U U144G and C51G G71C G86U G88A C116U G136A A147U C149G cannot be ordered by “polymerase ribozyme fitness (log ratio)” value: ≤ -4.2 for the first, ≤ -4.2 for the second.

C51G G71U and C51G G74A U77G A91G C96U A98G A107G C118G A119C G128C A137U cannot be ordered by “polymerase ribozyme fitness (log ratio)” value: ≤ -4.2 for the first, ≤ -4.2 for the second.

C51G G80A G84U G140C and C51G G81C C93A A106U cannot be ordered by “polymerase ribozyme fitness (log ratio)” value: ≤ -4.2 for the first, ≤ -4.2 for the second.

Going from C51G G83A G86A C95G G141C C149G to C51G G83A U134C, the “polymerase ribozyme fitness (log ratio)” value rises from ≤ -4.2 to -3.62.

C51G G86U U90G C93A and C51G G88A cannot be ordered by “polymerase ribozyme fitness (log ratio)” value: ≤ -4.2 for the first, ≤ -4.2 for the second.

Compared with C51G G94A U135A, C51G G94U U148G is lower in “polymerase ribozyme fitness (log ratio)” value: -3.11 for the first, ≤ -4.2 for the second.

Going from C51G G133U to C51G G136U U144G, the “polymerase ribozyme fitness (log ratio)” value rises from ≤ -4.2 to -2.56.

C51G U53G C75A C103A and C51G U53G C87U A138C cannot be ordered by “polymerase ribozyme fitness (log ratio)” value: ≤ -4.2 for the first, ≤ -4.2 for the second.

C51G U53G U56A C96U and C51G U55G C108A A119U G124A G141A U146A cannot be ordered by “polymerase ribozyme fitness (log ratio)” value: ≤ -4.2 for the first, ≤ -4.2 for the second.

C51G U56A G68A C93U A97G U104G G143A U146A and C51G U78G C87U G143A cannot be ordered by “polymerase ribozyme fitness (log ratio)” value: ≤ -4.2 for the first, ≤ -4.2 for the second.

C51U A52C U56A C79A G92U A120G and C51U A52G C76A A89G A97C C105U A119C G141U cannot be ordered by “polymerase ribozyme fitness (log ratio)” value: ≤ -4.2 for the first, ≤ -4.2 for the second.

C51U A60C C85U A89G G126A A137U and C51U A60C U90C A122C cannot be ordered by “polymerase ribozyme fitness (log ratio)” value: ≤ -4.2 for the first, ≤ -4.2 for the second.

C51U A66C G74A U90G U111G and C51U A66G G71U A91C C99U cannot be ordered by “polymerase ribozyme fitness (log ratio)” value: ≤ -4.2 for the first, ≤ -4.2 for the second.

C51U A73U U78G G84A G126U and C51U C54G U56C C99U U111G U134A G140A U146A cannot be ordered by “polymerase ribozyme fitness (log ratio)” value: ≤ -4.2 for the first, ≤ -4.2 for the second.

C51U C54U C57A A91G G92C U144C and C51U C54U C85A A106C cannot be ordered by “polymerase ribozyme fitness (log ratio)” value: ≤ -4.2 for the first, ≤ -4.2 for the second.

C51U C57A C79A G88C C105G and C51U C57A G67A C76U U148A C149A cannot be ordered by “polymerase ribozyme fitness (log ratio)” value: ≤ -4.2 for the first, ≤ -4.2 for the second.

C51U C57G U90C A110G and C51U C57U A66G C76G G83A C105G U135A G140A cannot be ordered by “polymerase ribozyme fitness (log ratio)” value: ≤ -4.2 for the first, ≤ -4.2 for the second.

C51U C63U G83C U151C and C51U C72U G80A C85A U109G cannot be ordered by “polymerase ribozyme fitness (log ratio)” value: ≤ -4.2 for the first, ≤ -4.2 for the second.

C51U C75A G80U A107U and C51U C75A U144A U146C cannot be ordered by “polymerase ribozyme fitness (log ratio)” value: ≤ -4.2 for the first, ≤ -4.2 for the second.

C51U C75G A137C and C51U C76A C85G C87U A107U G117U U130G C149A cannot be ordered by “polymerase ribozyme fitness (log ratio)” value: ≤ -4.2 for the first, ≤ -4.2 for the second.

C51U C85A C132A U135G G143C and C51U C87A G94C cannot be ordered by “polymerase ribozyme fitness (log ratio)” value: ≤ -4.2 for the first, ≤ -4.2 for the second.

C51U C87G U111A and C51U C87U G88C C93G C118A G128U cannot be ordered by “polymerase ribozyme fitness (log ratio)” value: ≤ -4.2 for the first, ≤ -4.2 for the second.

First: C51U C93G A120C G143C
Second: C51U C93U U109G C116U
The “polymerase ribozyme fitness (log ratio)” value of the first is lower: -4.17 for the first, -3.68 for the second.

Going from C51U C95G C105G G117U to C51U C103A, the “polymerase ribozyme fitness (log ratio)” value rises from -3.53 to -1.29.

First: C51U C103A A121C
Second: C51U C103G A138G
The “polymerase ribozyme fitness (log ratio)” value of the first is higher: -1 for the first, ≤ -4.2 for the second.

Compared with C51U C116G G140C, C51U C125A A137U is lower in “polymerase ribozyme fitness (log ratio)” value: -4.07 for the first, ≤ -4.2 for the second.

First: C51U G58A G92C G136A U148C
Second: C51U G59A C93U C103G G140A
The “polymerase ribozyme fitness (log ratio)” value of the first is higher: -3.3 for the first, ≤ -4.2 for the second.

C51U G59A G92A C118G G136C and C51U G59C A91U U109A cannot be ordered by “polymerase ribozyme fitness (log ratio)” value: ≤ -4.2 for the first, ≤ -4.2 for the second.

C51U G59U U82G C87U A97C A107C C108A and C51U G65A C76U C85U C116U U151C cannot be ordered by “polymerase ribozyme fitness (log ratio)” value: ≤ -4.2 for the first, ≤ -4.2 for the second.

C51U G68A C96U G143C and C51U G68C G83U U102G cannot be ordered by “polymerase ribozyme fitness (log ratio)” value: ≤ -4.2 for the first, ≤ -4.2 for the second.

C51U G68U C87U U145C and C51U G71A A91U G124C cannot be ordered by “polymerase ribozyme fitness (log ratio)” value: ≤ -4.2 for the first, ≤ -4.2 for the second.

In the case of C51U G80C A91G G94A, the “polymerase ribozyme fitness (log ratio)” value is reported as ≤ -4.2.
